Source: PMC3291536
Results are given in words; binding and its absence hold for the method and conditions named. Binding seen in cells or lysates may run through a third protein. Some entries that bind do so weakly or less than the wild type.

Chains of the proteins cited; added tags and fusions are not shown.
UniProt Q8VIG1: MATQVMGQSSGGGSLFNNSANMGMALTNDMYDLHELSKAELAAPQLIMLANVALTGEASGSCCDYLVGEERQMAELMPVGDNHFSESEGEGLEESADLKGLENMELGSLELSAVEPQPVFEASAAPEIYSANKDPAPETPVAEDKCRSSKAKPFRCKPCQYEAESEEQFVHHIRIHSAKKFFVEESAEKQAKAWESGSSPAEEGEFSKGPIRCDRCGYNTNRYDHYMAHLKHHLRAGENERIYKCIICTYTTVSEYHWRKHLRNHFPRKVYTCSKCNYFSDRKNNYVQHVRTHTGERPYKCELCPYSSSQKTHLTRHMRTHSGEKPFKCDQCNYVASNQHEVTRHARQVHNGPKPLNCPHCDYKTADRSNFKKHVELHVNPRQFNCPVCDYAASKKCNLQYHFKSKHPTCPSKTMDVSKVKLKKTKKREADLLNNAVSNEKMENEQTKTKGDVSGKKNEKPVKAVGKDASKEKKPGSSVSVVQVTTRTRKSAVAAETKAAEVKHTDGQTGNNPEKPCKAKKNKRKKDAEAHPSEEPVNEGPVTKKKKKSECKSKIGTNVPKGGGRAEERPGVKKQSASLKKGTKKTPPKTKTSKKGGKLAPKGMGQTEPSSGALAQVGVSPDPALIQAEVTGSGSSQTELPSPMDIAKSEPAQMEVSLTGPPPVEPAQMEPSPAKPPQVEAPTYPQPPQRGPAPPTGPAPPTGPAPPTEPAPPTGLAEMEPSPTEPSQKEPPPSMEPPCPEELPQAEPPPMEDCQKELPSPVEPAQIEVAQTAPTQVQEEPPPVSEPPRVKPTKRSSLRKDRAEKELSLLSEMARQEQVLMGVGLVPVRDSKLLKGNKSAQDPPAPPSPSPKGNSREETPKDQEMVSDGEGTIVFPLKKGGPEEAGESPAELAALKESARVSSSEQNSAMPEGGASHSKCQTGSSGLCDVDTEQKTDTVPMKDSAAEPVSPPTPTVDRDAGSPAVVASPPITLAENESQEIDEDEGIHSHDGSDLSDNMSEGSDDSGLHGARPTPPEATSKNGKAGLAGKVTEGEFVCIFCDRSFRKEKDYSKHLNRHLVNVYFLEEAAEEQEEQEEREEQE
UniProt Q13127: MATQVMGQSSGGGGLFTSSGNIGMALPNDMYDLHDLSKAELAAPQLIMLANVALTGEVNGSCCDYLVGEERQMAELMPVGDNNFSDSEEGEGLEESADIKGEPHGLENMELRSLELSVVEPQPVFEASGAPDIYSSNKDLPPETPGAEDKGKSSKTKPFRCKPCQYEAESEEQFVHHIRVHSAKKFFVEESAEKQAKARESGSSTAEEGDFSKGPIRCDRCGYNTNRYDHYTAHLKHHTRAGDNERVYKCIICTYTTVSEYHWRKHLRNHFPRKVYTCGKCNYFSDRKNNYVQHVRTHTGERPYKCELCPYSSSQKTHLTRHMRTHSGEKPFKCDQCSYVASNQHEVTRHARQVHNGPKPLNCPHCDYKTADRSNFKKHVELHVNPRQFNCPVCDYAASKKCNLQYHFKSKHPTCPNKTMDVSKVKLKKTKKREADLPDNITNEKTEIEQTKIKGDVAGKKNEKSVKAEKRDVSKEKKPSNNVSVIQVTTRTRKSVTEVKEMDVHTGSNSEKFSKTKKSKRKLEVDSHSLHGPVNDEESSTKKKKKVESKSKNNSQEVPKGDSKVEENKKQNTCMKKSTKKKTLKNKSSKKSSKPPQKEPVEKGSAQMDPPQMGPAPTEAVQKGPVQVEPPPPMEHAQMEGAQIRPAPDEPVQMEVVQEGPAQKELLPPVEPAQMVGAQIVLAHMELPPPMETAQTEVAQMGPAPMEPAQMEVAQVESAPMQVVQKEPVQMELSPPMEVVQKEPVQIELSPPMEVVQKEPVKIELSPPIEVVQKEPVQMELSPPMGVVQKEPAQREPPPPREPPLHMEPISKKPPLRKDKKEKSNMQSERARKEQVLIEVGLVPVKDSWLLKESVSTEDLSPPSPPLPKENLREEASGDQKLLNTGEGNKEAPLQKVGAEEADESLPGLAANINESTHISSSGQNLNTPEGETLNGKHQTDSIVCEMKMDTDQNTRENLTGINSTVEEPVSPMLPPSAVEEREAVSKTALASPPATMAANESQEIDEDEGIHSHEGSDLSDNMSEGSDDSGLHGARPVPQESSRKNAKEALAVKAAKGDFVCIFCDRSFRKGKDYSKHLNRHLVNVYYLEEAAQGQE

Experiments:
[1] = target: Rest (mouse) (mouse (endogenous in mES cells)) (UniProt Q8VIG1); experiment: co-IP; anti-Rest or control IgG on pooled size-exclusion fractions (1: F8–10; 2: F11–13; 3: F22) of nuclear extracts from Wt, Eed−/− or Rnf2−/− mES cells; Western blotting
[2] = target: REST (Neuron-Restrictive Silencing Factor) (human (endogenous in NT2-D1 and HEK293)) (UniProt Q13127); experiment: co-IP; anti-REST or control IgG cross-linked to protein A-Sepharose; pooled Superose 6 fractions of NT2-D1 nuclear extract (pool 1: F7–9; pool 2: F11–13; pool 3: F21–22); Western blotting

Row | Binder | binding [1] | binding [2]
1 | Nspc1 (mouse) (protein, UniProt Q8R023 1-259) MASPQGGQIAIAMRLRNQLQSVYKMDPLRNEEEVRVKIKDLNEHIVCCLCAGYFVDATTITECLHTFCKSCIVKYLQTSKYCPMCNIKIHETQPLLNLKLDRVMQDIVYKLVPGLQDSEEKRIREFYQSRGLDRVSQPSGEEPALSNLGLPFSSFDHSKAHYYRYDEQLSLCLERLSSGKDKNKNVLQNKYVRCSVRAEVRHLRRVLCHRLMLNPQHVQLLFDNEVLPDHMTMKQLWLSRWFGKPSPLLLQYSVKEKRR | binds | 
2 | CBX8 (protein, UniProt Q9HC52 1-389) MELSAVGERVFAAEALLKRRIRKGRMEYLVKWKGWSQKYSTWEPEENILDARLLAAFEEREREMELYGPKKRGPKPKTFLLKAQAKAKAKTYEFRSDSARGIRIPYPGRSPQDLASTSRAREGLRNMGLSPPASSTSTSSTCRAEAPRDRDRDRDRDRERDRERERERERERERERERERGTSRVDDKPSSPGDSSKKRGPKPRKELPDPSQRPLGEPSAGLGEYLKGRKLDDTPSGAGKFPAGHSVIQLARRQDSDLVQCGVTSPSSAEATGKLAVDTFPARVIKHRAAFLEAKGQGALDPNGTRVRHGSGPPSSGGGLYRDMGAQGGRPSLIARIPVARILGDPEEESWSPSLTNLEKVVVTDVTSNFLTVTIKESNTDQGFFKEKR |  | binds
